# Results from the supplement of paper PMC10369915.
# The other results are listed elsewhere or left out. Rule as the data show it: active = 3.2 or more and inactive = the rest. The signal is at background level for most entries.
# B1: TC2N_Y154_K151T (peptide)
# chain: EVTRLYGSVCD
# B2: TASOR_Y1043_T1046R (peptide)
# chain: QKNVSYVSRVS
# B3: SYNE1_Y6953_Q6951H_YF (peptide)
# chain: EFLHKYKGFKI
# B4: TBK1_Y153 (peptide)
# chain: DGQSVYKLTDF
# B5: TBX15_Y159 (peptide)
# chain: DPHQQYYIAMD
# B6: TAF4_Y652 (peptide)
# chain: SSPQPYLVPFL
# B7: TAS2R16_Y239_V235M (peptide)
# chain: IMFTSYFLTIL
# B8: STXBP2_Y401_R405Q (peptide)
# chain: AAVPAYDKIQV
# B9: SYK_Y47_R45H (peptide)
# chain: RQSHNYLGGFA
# B10: SUCLG2_Y343_K347R (peptide)
# chain: KEAQVYQAFRL
# B11: TCF12_Y70_R74G (peptide)
# chain: QPSPSYDSSGG
# B12: SVIL_Y185 (peptide)
# chain: GESKDYALHVG
# B13: SYT2_Y309 (peptide)
# chain: GLSDPYVKIHL
# B14: SYNE1_Y6953_Q6951H (peptide)
# chain: EYLHKYKGFKI
# B15: TEK_Y1108_T1106M (peptide)
# chain: VNTMLYEKFTY
# B16: TBCK_Y153 (peptide)
# chain: DFPIGYPSYLA
# B17: SYK_Y47 (peptide)
# chain: RQSRNYLGGFA
# B18: SYT2_Y309_D307A (peptide)
# chain: GLSAPYVKIHL
# B19: SYP_Y250_YF (peptide)
# chain: APGDAYGDAGF
# B20: SUCLG2_Y343 (peptide)
# chain: KEAQVYQAFKL
# B21: TBK1_Y354 (peptide)
# chain: NQELIYEGRRL
# B22: TEK_Y1102_T1106M (peptide)
# chain: EERKTYVNTML
# B23: TAF1L_Y1385 (peptide)
# chain: TVHCDYLNIPH
# B24: SYP_Y278_D277E_YF (peptide)
# chain: GFQPEYGQPAG
# B25: SYNE1_Y6953_YF (peptide)
# chain: EFLQKYKGFKI
# B26: TC2N_Y154 (peptide)
# chain: EVKRLYGSVCD
# B27: TEK_Y1108 (peptide)
# chain: VNTTLYEKFTY
# B28: TEC_Y360_S359I (peptide)
# chain: TAGFIYEKWEI
# B29: SUMF1_Y344_A348P_YF (peptide)
# chain: SFCFRYRCAPR
# B30: SYT2_Y309_P308L (peptide)
# chain: GLSDLYVKIHL
# B31: SYNE2_Y575_I574T (peptide)
# chain: YRKNTYNVKST
# B32: SYNM_Y460_G462S (peptide)
# chain: REVPVYISEDS
# B33: TBL1X_Y509_H504Y_YF (peptide)
# chain: FQEPVYSVAFS
# B34: SYT1_Y365 (peptide)
# chain: VTVLDYDKIGK
# B35: TAS2R16_Y239_F240V (peptide)
# chain: IVFTSYVLTIL
# B36: TAS2R16_Y239 (peptide)
# chain: IVFTSYFLTIL
# B37: TCF12_Y70 (peptide)
# chain: QPSPSYDSSRG
# Target: SHP2 C-SH2 domain E139D
# Experiment: enrichment score (SH2-bound / input frequency) (ratio); bacterial display of known human phosphotyrosine sites (pTyr-Var adds point mutants) read by sequencing; higher = stronger binding; tyrosines were phosphorylated by kinases first
# Details: peptide library: pTyr-Var
# 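Also: displayed peptides selected on beads carrying the immobilized SH2 domain, with library peptides lacking any tyrosine serving as negative controls.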
row,Binder,enrichment score
1,B1,inactive: 1.01
2,B2,inactive: 0.936
3,B3,inactive: 0.726
4,B4,inactive: 0.667
5,B5,inactive: 0.855
6,B6,inactive: 1.02
7,B7,inactive: 2.98
8,B8,inactive: 0.678
9,B9,inactive: 0.613
10,B10,inactive: 0.807
11,B11,inactive: 0.537
12,B12,inactive: 0.648
13,B13,inactive: 1.02
14,B14,inactive: 0.76
15,B15,inactive: 1.48
16,B16,inactive: 0.988
17,B17,inactive: 0.439
18,B18,inactive: 1.07
19,B19,inactive: 0.515

row,Binder,enrichment score
1,B20,inactive: 0.66
2,B21,inactive: 0.512
3,B22,inactive: 1.16
4,B23,inactive: 1.42
5,B24,inactive: 0.371
6,B25,inactive: 0.755
7,B26,inactive: 0.563
8,B27,inactive: 0.871
9,B28,inactive: 1.9
10,B29,inactive: 0.268
11,B30,inactive: 1.85
12,B31,inactive: 0.447
13,B32,inactive: 0.757
14,B33,inactive: 1.13
15,B34,inactive: 0.91
16,B35,inactive: 2.42
17,B36,inactive: 3.17
18,B37,inactive: 0.452

# Target: SHP2 C-SH2 domain wild-type
# Experiment: as above
# Details: peptide library: pTyr-Var
row,Binder,enrichment score
1,B1,inactive: 1.06
2,B2,inactive: 0.641
3,B3,inactive: 0.975
4,B4,inactive: 0.567
5,B5,inactive: 0.848
6,B6,inactive: 1.36
7,B7,active: 3.84
8,B8,inactive: 0.904
9,B9,inactive: 0.604
10,B10,inactive: 0.674
11,B11,inactive: 0.654
12,B12,inactive: 0.52
13,B13,inactive: 1.28
14,B14,inactive: 0.62
15,B15,inactive: 1.18
16,B16,inactive: 0.708
17,B17,inactive: 0.449
18,B18,inactive: 2.62
19,B19,inactive: 0.438

row,Binder,enrichment score
1,B20,inactive: 0.903
2,B21,inactive: 0.644
3,B22,inactive: 1.37
4,B23,inactive: 1.75
5,B24,inactive: 0.455
6,B25,inactive: 0.92
7,B26,inactive: 0.856
8,B27,inactive: 1.06
9,B28,inactive: 1.71
10,B29,inactive: 0.291
11,B30,inactive: 2.35
12,B31,inactive: 0.372
13,B32,inactive: 1.02
14,B33,inactive: 1.1
15,B34,inactive: 0.843
16,B35,inactive: 2.42
17,B36,active: 3.22
18,B37,inactive: 0.499

# Target: SHP2 N-SH2 domain L43F
# Experiment: as above
# Details: peptide library: pTyr-Var
row,Binder,enrichment score
1,B1,inactive: 0.888
2,B2,inactive: 0.796
3,B3,inactive: 0.759
4,B4,inactive: 0.513
5,B5,inactive: 0.818
6,B6,inactive: 3.19
7,B7,inactive: 2.83
8,B8,inactive: 0.792
9,B9,inactive: 0.742
10,B10,inactive: 0.71
11,B11,inactive: 0.781
12,B12,inactive: 0.713
13,B13,inactive: 1.36
14,B14,inactive: 0.353
15,B15,inactive: 1.13
16,B16,inactive: 0.989
17,B17,inactive: 0.351
18,B18,inactive: 1.51
19,B19,inactive: 0.468

row,Binder,enrichment score
1,B20,inactive: 0.737
2,B21,inactive: 0.542
3,B22,inactive: 1.18
4,B23,inactive: 1.11
5,B24,inactive: 0.524
6,B25,inactive: 0.763
7,B26,inactive: 0.645
8,B27,inactive: 0.955
9,B28,inactive: 2.03
10,B29,inactive: 0.275
11,B30,inactive: 2.08
12,B31,inactive: 0.435
13,B32,inactive: 0.675
14,B33,inactive: 1.08
15,B34,inactive: 0.99
16,B35,inactive: 2.42
17,B36,active: 3.36
18,B37,inactive: 0.477

# Target: SHP2 N-SH2 domain T42A
# Experiment: as above
# Details: peptide library: pTyr-Var
row,Binder,enrichment score
1,B1,inactive: 0.766
2,B2,inactive: 0.685
3,B3,inactive: 0.638
4,B4,inactive: 0.577
5,B5,inactive: 0.779
6,B6,active: 5.15
7,B7,inactive: 2.33
8,B8,inactive: 0.797
9,B9,inactive: 0.579
10,B10,inactive: 0.702
11,B11,inactive: 0.792
12,B12,inactive: 0.648
13,B13,inactive: 1.77
14,B14,inactive: 0.688
15,B15,inactive: 1.14
16,B16,inactive: 0.667
17,B17,inactive: 0.286
18,B18,inactive: 3.09
19,B19,inactive: 0.505

row,Binder,enrichment score
1,B20,inactive: 0.769
2,B21,inactive: 0.56
3,B22,inactive: 1.11
4,B23,inactive: 1.32
5,B24,inactive: 0.324
6,B25,inactive: 0.704
7,B26,inactive: 0.459
8,B27,inactive: 0.847
9,B28,inactive: 1.59
10,B29,inactive: 0.277
11,B30,inactive: 2.29
12,B31,inactive: 0.41
13,B32,inactive: 0.578
14,B33,inactive: 1
15,B34,inactive: 0.721
16,B35,inactive: 2.39
17,B36,inactive: 2.78
18,B37,inactive: 0.186

# Target: SHP2 N-SH2 domain T52S
# Experiment: as above
# Details: peptide library: pTyr-Var
row,Binder,enrichment score
1,B1,inactive: 0.715
2,B2,inactive: 0.702
3,B3,inactive: 0.928
4,B4,inactive: 0.65
5,B5,inactive: 0.822
6,B6,active: 3.55
7,B7,inactive: 2.07
8,B8,inactive: 0.705
9,B9,inactive: 0.688
10,B10,inactive: 0.852
11,B11,inactive: 0.599
12,B12,inactive: 0.551
13,B13,inactive: 1.07
14,B14,inactive: 0.538
15,B15,inactive: 1.19
16,B16,inactive: 0.929
17,B17,inactive: 0.376
18,B18,inactive: 1.36
19,B19,inactive: 0.458

row,Binder,enrichment score
1,B20,inactive: 0.73
2,B21,inactive: 0.575
3,B22,inactive: 1.2
4,B23,inactive: 1.29
5,B24,inactive: 0.536
6,B25,inactive: 0.776
7,B26,inactive: 0.645
8,B27,inactive: 0.853
9,B28,inactive: 1.92
10,B29,inactive: 0.187
11,B30,inactive: 1.77
12,B31,inactive: 0.509
13,B32,inactive: 1.04
14,B33,inactive: 1.06
15,B34,inactive: 0.878
16,B35,inactive: 2.35
17,B36,inactive: 3.05
18,B37,inactive: 0.545

# Target: SHP2 N-SH2 domain wild-type
# Experiment: as above
# Details: peptide library: pTyr-Var
row,Binder,enrichment score
1,B1,inactive: 1.19
2,B2,inactive: 0.786
3,B3,inactive: 1.12
4,B4,inactive: 0.732
5,B5,inactive: 0.84
6,B6,inactive: 1.22
7,B7,active: 3.87
8,B8,inactive: 1.03
9,B9,inactive: 0.621
10,B10,inactive: 0.773
11,B11,inactive: 0.55
12,B12,inactive: 0.887
13,B13,inactive: 1.03
14,B14,inactive: 0.686
15,B15,inactive: 1.36
16,B16,inactive: 0.863
17,B17,inactive: 0.296
18,B18,inactive: 1.42
19,B19,inactive: 0.541

row,Binder,enrichment score
1,B20,inactive: 0.942
2,B21,inactive: 0.627
3,B22,inactive: 1.29
4,B23,inactive: 1.38
5,B24,inactive: 0.7
6,B25,inactive: 0.891
7,B26,inactive: 0.768
8,B27,inactive: 0.925
9,B28,inactive: 1.61
10,B29,inactive: 0.203
11,B30,inactive: 2.79
12,B31,inactive: 0.655
13,B32,inactive: 1.19
14,B33,inactive: 1.19
15,B34,inactive: 0.813
16,B35,inactive: 2.5
17,B36,active: 3.57
18,B37,inactive: 0.43
